Structures are written as SMILES. Hit rate of the full screen: of about 110,000 compounds, about 230 (0.21%) showed an effect of 50% or more. Some of the results follow.
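Also: 30 min substrate incubation versus DMSO and 10 µM JCP410 controls.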

DPAP1, sequence (Q8IIJ9 whole entry, looked up): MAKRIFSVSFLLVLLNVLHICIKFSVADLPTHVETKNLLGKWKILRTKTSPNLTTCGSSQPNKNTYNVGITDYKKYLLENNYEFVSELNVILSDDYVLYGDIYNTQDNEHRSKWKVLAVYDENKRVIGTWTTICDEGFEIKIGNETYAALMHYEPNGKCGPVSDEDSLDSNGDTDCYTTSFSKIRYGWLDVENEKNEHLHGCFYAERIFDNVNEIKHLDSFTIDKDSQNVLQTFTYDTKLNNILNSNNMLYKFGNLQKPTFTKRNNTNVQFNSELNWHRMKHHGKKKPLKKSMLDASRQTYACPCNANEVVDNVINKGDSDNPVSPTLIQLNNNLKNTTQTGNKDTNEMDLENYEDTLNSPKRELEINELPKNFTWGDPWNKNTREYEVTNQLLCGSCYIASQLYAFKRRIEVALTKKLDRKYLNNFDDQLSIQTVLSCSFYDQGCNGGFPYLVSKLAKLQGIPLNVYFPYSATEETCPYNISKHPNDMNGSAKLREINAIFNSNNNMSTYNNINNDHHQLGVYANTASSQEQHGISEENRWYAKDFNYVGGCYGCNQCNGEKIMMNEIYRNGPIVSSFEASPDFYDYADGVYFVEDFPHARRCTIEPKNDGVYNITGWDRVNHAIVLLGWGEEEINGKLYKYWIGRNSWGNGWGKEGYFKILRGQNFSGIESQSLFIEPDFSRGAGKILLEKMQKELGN

The assay has as its target DPAP1 (Plasmodium falciparum, UniProt Q8IIJ9). The experiment in a line: primary screen, percent inhibition; read by cleavage of a fluorogenic dipeptide substrate; higher = more effect of the substance. More on the design: species or system P. falciparum D10 trophozoite lysates; single well.
`O=C(O)c1nccnc1C(=O)Nc1ccccc1[N+](=O)[O-]`: the “% Inhibition @ 10 uM” value is given as -7.87%. On to `CCc1c(C)c2ccc3c(c2oc1=O)CN(c1cc(C)ccn1)CO3`, for which the “% Inhibition @ 10 uM” value was -1.28%. Take `C/C(=C\C(=O)Nc1ccccn1)Nc1ccccn1`: the “% Inhibition @ 10 uM” value stood at 3.76%.

`O=C(/C=C/c1ccco1)N(Cc1cccc(F)c1)C1CCS(=O)(=O)C1` (centres unmarked): the “% Inhibition @ 10 uM” value was -1.35%.

For `Cc1ccc(-c2cn3nc(N4CCC(C(=O)NC(C)C)CC4)sc3n2)cc1`, the “% Inhibition @ 10 uM” value amounted to 2.22%. Regarding `CCOC(=O)c1sc2nc(-c3ccccc3)ccc2c1N`, the “% Inhibition @ 10 uM” value turned out to be 3.03%. With `Cn1c(=O)c2c(c3ccccc31)OC(C)(C)CC2`, the “% Inhibition @ 10 uM” value was -1.06%.

For the molecule `Clc1ccccc1-c1nnc(-c2ccc(-c3ccccc3)cc2)o1`, the “% Inhibition @ 10 uM” value is -8.01%. The figure for `CCN1C(=O)N/C(=C/c2ccc(-c3ccc(C(=O)O)cc3C)o2)C1=O` is -0.334%; for `O=C(Nc1ccc2nn(-c3ccc(Br)cc3)nc2c1)c1ccc2c(c1)OCCO2` it is -4.59%. The figure for `O=Cc1cn(Cc2cccc(Cl)c2)c2ccccc12` is -6.4%; for `CC1(C)CC2(CC(C)(C)N1)OC(=O)N(CCCO)C2(C)O` (centres unmarked) it is 4.61%; for `Cn1c(=O)c2sccc2n2c(CCC(=O)N3CCN(c4ccccn4)CC3)nnc12` it is -1.71%.

Regarding `CN(CC(=O)NCc1ccccc1Cl)S(=O)(=O)c1cc(Cl)ccc1Cl`, the “% Inhibition @ 10 uM” value is listed as -5.57%. The figure for `O=C(COc1ccc(Cl)cc1Cl)Nc1ccc(Br)cc1` is -5.62%; for `Cc1nc2scc(C)n2c(=O)c1S(=O)(=O)NCCc1ccc(Cl)cc1` it is 1.99%. The figure for `O/N=C(\c1ccccc1)c1cc2ccccc2o1` is -1.56%; for `O=C(c1ccco1)N1CCN(C2CC(=O)N(c3ccccc3)C2=O)CC1` (centres unmarked) it is 11.6%; for `N#C/C(=C\c1cn(Cc2ccccc2Cl)c2ccccc12)c1nn(CCO)c(N)c1C#N` it is -1.84%. Regarding `COCCNc1ncnc2c1c(-c1ccccc1)cn2-c1cccc(Cl)c1`, the “% Inhibition @ 10 uM” value is given as 2.72%. As for `Cc1cc2ccccc2c(=O)n1CC(=O)NCC(=O)N1CCC(Cc2ccccc2)CC1`, the “% Inhibition @ 10 uM” value is recorded as -0.363%.

Consider `O=C(/C=C/c1cccs1)Nc1ncc(Cc2cccc(C(F)(F)F)c2)s1`, for which the “% Inhibition @ 10 uM” value is given as -1.92%. Then `CCOc1ccccc1NC(=O)c1ccccn1`, with 5.69%; and `CN1CCC(NCc2ccccc2C(F)(F)F)CC1`, with -4.95%. Then `CCOC(=O)c1ccc(CN(Cc2ccccc2)S(=O)(=O)c2ccc(OC)cc2)cc1`, with -1.99%. The figure for `COc1cccc(OC)c1OCCN1CCCCC1` is -1.42%; for `Cc1nn(-c2ccccc2)c2c1C(c1ccc(Br)cc1)C(C#N)=C(N)O2` (centres unmarked) it is -5.41%.

Take `Cc1c(Cl)cccc1NC(=O)[C@@H]1C[C@@H]1c1ccccc1`: the “% Inhibition @ 10 uM” value worked out at 6.18%.

With `COCCNC(=O)CSCc1nc(-c2ccc(OC)cc2)oc1C`, the “% Inhibition @ 10 uM” value is reported as -1.05%.

As for `O=C1c2n[nH]c(-c3ccccc3O)c2C(c2cccc(Br)c2)N1Cc1ccco1` (centres unmarked), the “% Inhibition @ 10 uM” value is listed as -1.35%.

Turning to `COc1cccc(N(CC(=O)N2CCN(c3ccccc3F)CC2)S(=O)(=O)c2ccccc2)c1`, the “% Inhibition @ 10 uM” value stood at 2.01%. On to `CN1CCC(N(C)CCCc2ccccc2)CC1`, for which the “% Inhibition @ 10 uM” value was determined as 2.91%.

With `C=CCNC(=O)/C(C#N)=C/c1c(Oc2cccc(C)c2)nc2c(C)cccn2c1=O`, the “% Inhibition @ 10 uM” value is listed as -1.43%. Then `CC(=O)N1c2c(ccc3ccccc23)C(C)CC12CCCCC2` (centres unmarked), with 4.26%; and `O=C1C2CC=CCC2C(=O)N1CCc1ccccc1Cl` (centres unmarked), with -6.5%. With `O=C(CN1C(=O)c2ccccc2S1(=O)=O)NCCSCc1ccco1`, the “% Inhibition @ 10 uM” value is given as -2.34%. For `Cc1ccc(N2C(=O)C3C4CCC(C4)C3C2=O)cc1` (centres unmarked), the “% Inhibition @ 10 uM” value stood at 3.1%. `N#CC1=C(N)Oc2cc(O)ccc2C1c1cc(Br)cs1` (centres unmarked): the “% Inhibition @ 10 uM” value was determined as 5.08%. Then `COCC(=O)Nc1ccc(C(C)C)cc1`, with 2.65%; and `O=C1CCCc2c1c1ccccc1c(=O)n2Cc1ccccc1`, with -4.31%; and `Cn1cccc1/C=C1/CCC(C2CCCC2)C1=O` (centres unmarked), with -5.51%. The figure for `COc1ccc(/C=C(\C#N)C(=O)O)cc1` is 2.59%; for `Cc1nn(CC(=O)NCc2ccc3c(c2)OCO3)c(=O)c2cccn12` it is -7.17%; for `O=C(COc1ccc(N2C(=O)C3=C(CCCC3)C2=O)cc1)N1CCCCC1` it is -6.25%. Then `Cn1nnnc1SCC(=O)NCc1cccc(C(=O)O)c1`, with -1.43%; and `Cc1cc(C)n(CCc2nc3c4ccccc4nc(NCc4ccc(F)cc4)n3n2)n1`, with 0.981%; and `O=C(N1CCN(c2ccccc2F)CC1)C12C[C@H]3C[C@@H](C1)C[C@@H](C2)C3`, with -4.91%. Consider `COc1ccc(CN2CCC(Cc3ccccc3)CC2)cc1Br`, for which the “% Inhibition @ 10 uM” value was 0.708%. With `O=C(COc1ccccc1)N1CCN=C1c1ccccc1`, the “% Inhibition @ 10 uM” value is given as 4.18%. Turning to `Cc1oc2ncn(C)c(=O)c2c1C(=O)NCCN(C)C`, the “% Inhibition @ 10 uM” value is given as -5.76%. Turning to `Cc1ccc(-c2ccc(C(=O)N[C@@H](CC(C)C)C(=O)NCC#N)cc2)cc1C`, the “% Inhibition @ 10 uM” value is given as -6.46%. The figure for `Cn1c2ccccc2c2cnn(CC(=O)NCCCN3CCOCC3)c(=O)c21` is -0.439%; for `CCOC(=O)N1CCN(C(=O)CN(Cc2cccc(C)c2)S(=O)(=O)c2ccc(Cl)cc2)CC1` it is 0.408%. `N#Cc1c(N)n(-c2ccccc2O)c2nc3ccccc3nc12`: the “% Inhibition @ 10 uM” value is on record as 3.9%.

With `COc1ccc(CC/N=C/C2C(=O)N(c3nc4ccccc4s3)N=C2C(F)(F)F)cc1OC` (centres unmarked), the “% Inhibition @ 10 uM” value is on record as -4.24%.

On to `COc1cc(CN(C(=O)/C(=C/c2cccnc2)NC(=O)c2ccccc2)C2CCCCC2)ccc1O`, for which the “% Inhibition @ 10 uM” value is -5%. The figure for `CC(=O)c1cccc(NC(=O)CCCOc2ccc(Cl)cc2Cl)c1` is -4.39%; for `Cc1ccccc1NC(=O)c1ccc(OC(C)C)cc1` it is -3.94%; for `CCSc1nc(C)c(Cc2cc(C)ccc2C)c(O)n1` it is 9.78%. With `Cn1c(=O)c2c(ncn2CCCC(=N)N2CCOCC2)n(C)c1=O`, the “% Inhibition @ 10 uM” value was 5.66%. `COc1c(Cl)cc(Cl)cc1C(=O)Nc1ccc(Br)cc1`: the “% Inhibition @ 10 uM” value was 0.989%.

Consider `Cc1ccc(OCC(=O)Nc2ccc(S(=O)(=O)N3CCCC3)cc2)c(Br)c1`, for which the “% Inhibition @ 10 uM” value was found to be 4.53%.

On to `COc1ccccc1-n1nnc(-c2nc(-c3cccnc3)no2)c1N`, for which the “% Inhibition @ 10 uM” value turned out to be 1.4%.

Take `CCOC(=O)c1cccc(Cn2nnc3sc(-c4ccccc4)cc3c2=O)c1`: the “% Inhibition @ 10 uM” value turned out to be 7.04%.

On to `CCCc1[nH]nc2c1C(c1ccc(O)c(O)c1)C(C#N)=C(N)O2` (centres unmarked), for which the “% Inhibition @ 10 uM” value was found to be 0.751%. For `COc1ccc(S(=O)(=O)N2CCC(C(=O)O)CC2)cc1`, the “% Inhibition @ 10 uM” value is on record as -3.74%. The figure for `O=C(c1ccco1)N1CCN(C(=O)c2c(F)cccc2F)CC1` is 2.22%; for `CCCN(CCO)Cc1ccc(Br)cc1` it is -0.0494%.

As for `O=[N+]([O-])c1ccccc1OCCCN1CCCCC1`, the “% Inhibition @ 10 uM” value is reported as 1.62%. The figure for `COC(=O)/C(C#N)=C/c1c(Oc2ccc(C)cc2C)nc2ccccn2c1=O` is 2%; for `O=C(c1cc(Cl)cc(Cl)c1)N1CCN(C(=O)c2cc(Cl)cc(Cl)c2)CC1` it is 2.6%. The figure for `Cc1cc(C)n2nc[n+](CC(=O)c3ccccc3)c2n1` is -4.65%; for `CCc1ccc(OCC(=O)Nc2ccc(S(=O)(=O)N3CCOCC3)cc2)c(Br)c1` it is -2.74%; for `Cc1cc(SCC(=O)NCc2ccccc2)n2nc(C)c(-c3ccc(Cl)cc3)c2n1` it is 1.72%.

In the case of `COc1ccc(N2C(=O)CC(N(C)CCc3ccc(OC)c(OC)c3)C2=O)cc1` (centres unmarked), the “% Inhibition @ 10 uM” value is recorded as -4.7%.

Consider `CCCCCCOC(=O)Nc1nnc(Cc2ccccc2)s1`, for which the “% Inhibition @ 10 uM” value is reported as -0.546%. Then `CCC(Sc1nc(NC2CCCCC2)c2ccccc2n1)C(=O)NCCCOC` (centres unmarked), with -4.01%; and `C1=CCC(CN2CCN(C/C=C/c3ccccc3)CC2)CC1` (centres unmarked), with -2.02%; and `O=C(NCc1ccco1)c1cnc2ccc(S(=O)(=O)N3CCOCC3)cc2c1O`, with -1.99%. The figure for `CCOc1ccc(CCNC(=O)C(CC)n2nc(C)n3c(cc4sccc43)c2=O)cc1OCC` (centres unmarked) is 1.8%; for `Cc1nc2cc(NC(=O)N3CC4(C)CC3CC(C)(C)C4)ccc2n1C` (centres unmarked) it is -2.17%; for `Fc1ccccc1CCNC1CN2CCC1CC2` (centres unmarked) it is -0.0953%. The figure for `COc1cccc(N(CC(=O)Nc2ccc(C)c(C)c2)S(C)(=O)=O)c1` is -1.43%. Take `CC(=O)Nn1nc2cc3nn[nH]c3cc2n1`: the “% Inhibition @ 10 uM” value was -1.29%. In the case of `Cc1ccc(Nc2nc(-c3sc(C)nc3C)cs2)nc1`, the “% Inhibition @ 10 uM” value is on record as -1.69%. Then `Cc1ccc(-c2nc(CS(=O)(=O)CC(=O)NCc3ccccc3)c(C)o2)cc1`, with -9.55%. Take `COc1ccc(S(=O)(=O)NCCOCC(F)(F)F)cc1C`: the “% Inhibition @ 10 uM” value is reported as -6.53%. Then `COc1ccc(-n2c(C)cc(C)c(C(C)=O)c2=O)cc1`, with -11.5%; and `C1=C(c2ccccc2)C(N2CCOCC2)Oc2ccccc21` (centres unmarked), with 1.78%; and `CCOc1cc(/C=C2/SC(=O)N(CC(=O)N3CCOCC3)C2=O)ccc1OC(C)C`, with 8.58%.

Turning to `CC12CN3CC(c4ccccc4)(CN(C1)C3c1c[nH]c3ccccc13)C2=O` (centres unmarked), the “% Inhibition @ 10 uM” value is reported as 1.25%. The figure for `Brc1ccc(-c2cc(-c3ccccc3)nc(N3CCNCC3)n2)cc1` is -0.239%; for `Cc1ccccc1OCc1nc(C#N)c(NCc2ccc3c(c2)OCO3)o1` it is -1.38%; for `Cc1nc(-c2ccccc2)nc2oc3c(O)ncnc3c12` it is 3.8%. The figure for `COc1ccccc1CN1C(=O)c2ccncc2C1=O` is -1.08%; for `CC(Nc1nc2c(S(=O)(=O)c3ccc(Cl)cc3)nnn2c2ccccc12)c1ccccc1` (centres unmarked) it is -6.68%; for `COc1ccccc1CNC(=O)c1cccc2ccccc12` it is -3.03%. Consider `CCOC(=O)N1CCN(Cc2cccc(Cl)c2Cl)CC1`, for which the “% Inhibition @ 10 uM” value is recorded as -0.0494%. On to `CN1CCN(CCCNC(=O)C2C3C=CC4(CN(Cc5ccccc5Cl)C(=O)C24)O3)CC1` (centres unmarked), for which the “% Inhibition @ 10 uM” value came to 3.33%. Then `NC(=O)c1nn2c(c1Br)NC(c1ccccc1)CC2C(F)(F)F` (centres unmarked), with 7.2%. Then `N#Cc1c2n(c3c(=O)n(Cc4ccc(Cl)cc4)cnc13)CCCCC2`, with 0.986%.

Source of the values: article PMC6919601, “Identification of Plasmodium dipeptidyl aminopeptidase allosteric inhibitors by high throughput screening” (PLoS ONE, 2019).
